Out of some 310,000 compounds screened, about 2,200 (0.71%) showed an effect of 50% or more. The effect is printed as a negative number. This is one part of the list.
Target: human ether-à-go-go-related gene (hERG) potassium channel (human, UniProt Q12809)
Experiment: primary screen, population patch clamp on CHO cells stably expressing hERG

Sequence of human ether-à-go-go-related gene (hERG) potassium channel (Q12809 whole entry, looked up): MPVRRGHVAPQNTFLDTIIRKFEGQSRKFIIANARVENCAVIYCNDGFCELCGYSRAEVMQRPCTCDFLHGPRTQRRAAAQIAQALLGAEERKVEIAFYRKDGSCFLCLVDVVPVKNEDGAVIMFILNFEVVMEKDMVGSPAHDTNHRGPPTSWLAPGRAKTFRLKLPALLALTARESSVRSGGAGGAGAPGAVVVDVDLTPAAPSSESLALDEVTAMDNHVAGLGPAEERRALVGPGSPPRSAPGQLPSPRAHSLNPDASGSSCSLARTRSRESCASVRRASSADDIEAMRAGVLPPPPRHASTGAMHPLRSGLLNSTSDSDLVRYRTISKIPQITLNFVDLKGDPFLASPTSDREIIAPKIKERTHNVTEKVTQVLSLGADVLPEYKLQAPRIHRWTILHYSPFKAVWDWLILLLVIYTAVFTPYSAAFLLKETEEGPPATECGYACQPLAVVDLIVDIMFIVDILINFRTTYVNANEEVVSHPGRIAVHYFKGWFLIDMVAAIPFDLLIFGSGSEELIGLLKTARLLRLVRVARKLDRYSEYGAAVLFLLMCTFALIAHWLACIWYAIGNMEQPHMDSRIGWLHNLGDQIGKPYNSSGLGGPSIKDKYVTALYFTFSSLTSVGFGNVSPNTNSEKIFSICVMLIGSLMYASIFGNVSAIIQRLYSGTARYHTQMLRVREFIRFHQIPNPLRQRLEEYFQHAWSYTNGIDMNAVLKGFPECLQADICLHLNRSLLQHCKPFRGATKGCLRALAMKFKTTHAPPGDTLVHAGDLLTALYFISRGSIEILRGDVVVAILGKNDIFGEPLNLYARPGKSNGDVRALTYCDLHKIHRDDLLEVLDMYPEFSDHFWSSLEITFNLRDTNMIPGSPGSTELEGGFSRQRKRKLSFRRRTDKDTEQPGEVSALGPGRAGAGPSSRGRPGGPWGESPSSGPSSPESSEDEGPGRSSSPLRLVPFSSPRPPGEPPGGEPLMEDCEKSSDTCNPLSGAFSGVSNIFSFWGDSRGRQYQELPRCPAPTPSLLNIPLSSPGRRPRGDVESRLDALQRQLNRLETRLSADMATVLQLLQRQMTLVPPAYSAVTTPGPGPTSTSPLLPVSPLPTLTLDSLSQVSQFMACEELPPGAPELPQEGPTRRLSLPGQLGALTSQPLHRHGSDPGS

Row | SMILES | hERG current change (%, negative = inhibition) at 1uM
1 | O=C(CCN1C(=O)CSc2ccccc21)Nc1ccc(OC(F)(F)F)cc1 | 5.18%
2 | O=C(NCc1ccco1)c1cnc2sccn2c1=O | 11.1%
3 | CCn1nc(C)c(CN2CCCC(CNS(=O)(=O)c3ccc(OC)cc3)C2)c1C (centres unmarked) | -7.5%
4 | Cc1ccccc1C(=O)Nc1ccccc1C(=O)N/N=C\c1ccco1 | 9.4%
5 | Cc1ccc(OCC(=O)Nc2ccc(S(=O)(=O)Nc3cc(C)nc(C)n3)cc2)c(C)c1 | -1.77%
6 | CC(=O)c1ccc(N(C(=O)CNC(=O)c2ccco2)C(C(=O)NC2CCCC2)c2cccnc2)cc1 (centres unmarked) | 5.13%
7 | CSCCC(NC(=O)c1ccccc1)C(=O)OCC(=O)c1ccc[nH]1 (centres unmarked) | 2.6%
8 | C/C(=C\C(=O)c1ccc(C)cc1)NCc1ccc(F)cc1 | 6.77%
9 | NCCc1cnc[nH]1 | 4.13%
10 | COc1cc(/C=C/C(=O)NCCn2c(C)cc3ccccc32)cc(OC)c1OC | 14.8%
11 | COc1ccc(NC(=O)C2CCC(CNC(=O)[C@@H]3Cc4ccccc4CN3)CC2)cc1 (some centres unmarked) | 18.9%
12 | CC(C)Sc1nc2sc3c(c2c2nnc(SCC(=O)NCc4ccco4)n12)CCCC3 | -2.96%
13 | CCc1cc(C(=O)NC2CCCc3c2cnn3-c2cccc(C)c2C)n(C)n1 (centres unmarked) | 10.9%
14 | Cn1cc(CNC(=O)C2CCC(=O)N(Cc3cccc(C(F)(F)F)c3)C2)cn1 (centres unmarked) | 1%
15 | CC(C)c1ccc(NC2CCCN(C(=O)c3cnsn3)C2)cc1 (centres unmarked) | 13.4%
16 | NC(=O)Cc1ccc(C(=O)c2ccccc2F)s1 | 13.8%
17 | Clc1ccc(SCCn2cncn2)cc1 | 0.689%
18 | NC(=O)c1ccsc1NC(=O)COC(=O)Cc1n[nH]c(=O)c2ccccc12 | 20%
19 | Fc1cccc(-c2c(-c3ccccc3)ncc3cc(F)ccc23)c1 | 15.8%
20 | CCn1cc(CN2CCN(C)C(CCO)C2)c2ccccc21 (centres unmarked) | 5.94%
21 | Cc1cc(CNC(=O)C(C)Cc2ccccc2)nn1C (centres unmarked) | 4.63%
22 | S=C(NN=C1CCCCCC1)Nc1ccc(Cl)cc1 | 11%

Row | SMILES | hERG current change (%, negative = inhibition) at 1uM
23 | NC(=O)COc1ccc(=O)n(-c2ccccc2)n1 | 7.7%
24 | NC(=O)CC[C@@H]1NC(=O)[C@H](CO)NC(=O)c2cc([N+](=O)[O-])cc(I)c2NCCC[C@@H](C(N)=O)NC(=O)[C@H](Cc2ccc(O)cc2)NC1=O | 5.75%
25 | Cn1c(=O)c2c(ncn2CCCl)n(C)c1=O | 20.2%
26 | O=C(N/N=C/c1ccc(-c2cccc([N+](=O)[O-])c2)o1)c1ccccc1O | 15.2%
27 | COc1ccc(CNC(=S)N2CCN(S(=O)(=O)c3cccc(F)c3)CC2)cc1 | 12.5%
28 | COc1ccc(C(=O)OC2CCN(c3ncc(C(F)(F)F)cc3Cl)CC2)cc1 | 0.371%
29 | Cc1cccc(CC(=O)N2CCC(N3CCC(C(=O)N4CCOCC4)CC3)CC2)c1 | 9.98%
30 | O=C(NCCNC(=O)c1cc(OCC(F)(F)F)ccc1OCC(F)(F)F)Nc1ccccc1 | -15%
31 | N#CCSc1nccc(-c2cc(Cl)sc2Cl)n1 | 0.129%
32 | COc1ccc2oc(C(=O)Nc3nc(C)cs3)c(C)c2c1 | 6%
33 | O=C(Nc1ccc(-n2ccnc2P(=O)(O)c2ccccc2)cc1)c1ccccc1Cl | 13.2%
34 | OC1(c2ccc(OC(F)F)cc2)CSC(=Nc2cccnc2)N1C1CC1 (centres unmarked) | -4.46%
35 | CC(C)NC(=O)Cn1nnc(-c2ccc(Cl)cc2)n1 | -0.749%
36 | Cc1cccc(N2CCN(C(=O)c3cnn4c(C(F)F)cc(-c5ccccc5)nc34)CC2)c1C | -2.25%
37 | Oc1ccccc1/C=N/NC(=S)NCCc1ccccc1 | 13.4%
38 | CSCC[C@H](NC(=O)N1CCn2c1nc1ccccc12)C(=O)N[C@H](Cc1ccccc1)C(=O)O | 1.65%
39 | Cc1ccc(S(=O)(=O)N(CC(=O)NC2CCCC2)c2cccc(C)c2)cc1 | 4.72%
40 | Cc1cc(NS(=O)(=O)c2ccc(NC(=S)NC(=O)c3ccccc3)cc2)no1 | 4.47%
41 | CNCCCOc1ccc(C)cc1Br.O=C(O)C(=O)O | 3.15%
42 | COc1ccc(-n2nnnc2SCC(=O)Nc2nnc(C)s2)cc1OC | -7.62%
43 | C=C(C)CCC(C)N1CCC(n2nccc2NC(=O)CCOc2ccccc2)CC1 (centres unmarked) | 10.3%
44 | CCN(CC)c1ccc(NC(=O)c2ccccc2Br)cc1S(=O)(=O)Nc1ccccc1OC | 1.82%
